Reference: the supplement of paper PMC12645437, “Orthogonal IMiD-Degron Pairs Induce Selective Protein Degradation in Cells” (ACS Chemical Biology, 2025)
Some of the results follow.

B1: Q9UKT9 (peptide)
chain: FACNQCGAGFTQKGNLLRHIKL
B2: Q9UKT9 (peptide)
chain: FLCPQCGAGFTQKGNLLRHIKL
B3: Q9UKT9 (peptide)
chain: FMCNQCGRPFTQKGNLLRHIKL
B4: Q9UKT9 (peptide)
chain: FTCNVCGAVFTQKGNLLRHIKL
B5: Q9UKT9 (peptide)
chain: FICEICGRDFTQKGNLLRHIKL
B6: Q9UKT9 (peptide)
chain: FRCNVCGAHFTQKGNLLRHIKL
B7: Q9UKT9 (peptide)
chain: FDCNQCGHNFTQKGNLLRHIKL
B8: Q9UKT9 (peptide)
chain: FQCEICGADFTQKGNLLRHIKL
B9: Q9UKT9 (peptide)
chain: FGCDQCGADFTQKGNLLRHIKL
B10: Q9UKT9 (peptide)
chain: FKCDVCGANFTQKGNLLRHIKL
B11: Q9UKT9 (peptide)
chain: FTCPQCGANFTQKGNLLRHIKL
B12: Q9UKT9 (peptide)
chain: FKCNICGAFFTQKGNLLRHIKL
B13: Q9UKT9 (peptide)
chain: FRCDQCGAPFTQKGNLLRHIKL
B14: Q9UKT9 (peptide)
chain: FLCSVCGHYFTQKGNLLRHIKL

The sequences below were run against no compound (DMSO) (assay: log2 fold change of degron read counts, EGFP-low vs EGFP+ sorted cells; higher = lower degron-EGFP level without compound (poor expression or instability)). Conditions: compound: DMSO control; 18 h.
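Note: jurkat cells carrying a lentiviral library of mutant zinc finger degrons fused to EGFP plus mCherry, mCherry+ cells FACS sorted, degron abundance counted by next-generation sequencing.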

| Sequence | log2 fold change of degron read counts |
| --- | --- |
| B1 | 0.419 |
| B2 | -0.841 |
| B3 | -0.392 |
| B4 | -1.31 |
| B5 | -1.26 |
| B6 | -0.796 |
| B7 | 0.63 |
| B8 | -1.98 |
| B9 | -1.63 |
| B10 | -2.01 |
| B11 | -1.14 |
| B12 | -1.38 |
| B13 | -1.13 |
| B14 | 0.484 |
